# Assay results as given in the supplement of paper PMC8728848.
# Some of the results follow.
# How the values were obtained:
# Assay in all cases: glycan array binding signal (z-score within array); higher = stronger binding
# Conditions in all cases: glycan notation: IUPAC condensed, linker removed
# [1] = target: Neu5Ac(a2-3)Gal(b1-3)GalNAc
# Outline: (§1)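 Glycan array data were curated from 3228 arrays in the Consortium for Functional Glycomics database and kept only where the protein sequence was available. Glycan names were converted to IUPAC-condensed notation, and columns mapping to the same glycan were averaged. The binding signal is a within-array Z-score, averaged across arrays of the same protein sequence at different concentrations or buffers and across linkers. Negative Z-scores can be read as non-binding.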
# [2] = target: Neu5Ac(a2-3)Gal(b1-3)GalNAc(b1-3)Gal(a1-4)Gal(b1-4)Glc
# Outline: as §1
# [3] = target: Neu5Ac(a2-3)Gal(b1-3)GalNAc(b1-4)Gal(b1-4)Glc
# Outline: as §1
# [4] = target: Neu5Ac(a2-3)Gal(b1-3)GalNAc(b1-4)[Neu5Ac(a2-3)]Gal(b1-4)Glc
# Outline: as §1
# [5] = target: Neu5Ac(a2-3)Gal(b1-3)GalNAc(b1-4)[Neu5Ac(a2-8)Neu5Ac(a2-3)]Gal(b1-4)Glc
# Outline: as §1
# [6] = target: Neu5Ac(a2-3)Gal(b1-3)GalNAc6S
# Outline: as §1
# [7] = target: Neu5Ac(a2-3)Gal(b1-3)GlcNAc
# Outline: as §1
# [8] = target: Neu5Ac(a2-3)Gal(b1-3)GlcNAc(b1-2)Man
# Outline: as §1
# [9] = target: Neu5Ac(a2-3)Gal(b1-3)GlcNAc(b1-2)Man(a1-3)[GlcNAc(b1-4)][Neu5Ac(a2-3)Gal(b1-3)GlcNAc(b1-2)Man(a1-6)]Man(b1-4)GlcNAc(b1-4)GlcNAc
# Outline: as §1
# [10] = target: Neu5Ac(a2-3)Gal(b1-3)GlcNAc(b1-2)Man(a1-3)[Neu5Ac(a2-3)Gal(b1-3)GlcNAc(b1-2)Man(a1-6)]Man(b1-4)GlcNAc(b1-4)GlcNAc
# Outline: as §1
# [11] = target: Neu5Ac(a2-3)Gal(b1-3)GlcNAc(b1-2)[Neu5Ac(a2-3)Gal(b1-3)GlcNAc(b1-4)]Man(a1-6)[Neu5Ac(a2-3)Gal(b1-3)GlcNAc(b1-2)Man(a1-3)]Man(b1-4)GlcNAc(b1-4)GlcNAc
# Outline: as §1
# [12] = target: Neu5Ac(a2-3)Gal(b1-3)GlcNAc(b1-3)Gal(b1-3)GlcNAc
# Outline: as §1
# [13] = target: Neu5Ac(a2-3)Gal(b1-3)GlcNAc(b1-3)Gal(b1-4)GlcNAc
# Outline: as §1
# [14] = target: Neu5Ac(a2-3)Gal(b1-3)GlcNAc(b1-3)GalNAc
# Outline: as §1
# [15] = target: Neu5Ac(a2-3)Gal(b1-3)GlcNAc(b1-6)GalNAc
# Outline: as §1
# [16] = target: Neu5Ac(a2-3)Gal(b1-3)GlcNAc6S
# Outline: as §1
# [17] = target: Neu5Ac(a2-3)Gal(b1-3)[Fuc(a1-4)]GlcNAc
# Outline: as §1
# [18] = target: Neu5Ac(a2-3)Gal(b1-3)[Fuc(a1-4)]GlcNAc(b1-3)Gal(b1-3)[Fuc(a1-4)]GlcNAc
# Outline: as §1
# [19] = target: Neu5Ac(a2-3)Gal(b1-3)[Fuc(a1-4)]GlcNAc(b1-3)Gal(b1-4)[Fuc(a1-3)]GlcNAc
# Outline: as §1
# [20] = target: Neu5Ac(a2-3)Gal(b1-3)[GlcNAc(b1-6)]GalNAc
# Outline: as §1
# [21] = target: Neu5Ac(a2-3)Gal(b1-3)[Neu5Ac(a2-6)]GalNAc
# Outline: as §1
# [22] = target: Neu5Ac(a2-3)Gal(b1-3)[Neu5Ac(a2-6)]GlcNAc(b1-3)[Fuc(a1-3)[Gal(b1-4)]GlcNAc(b1-6)]Gal(b1-4)Glc
# Outline: as §1
# [23] = target: Neu5Ac(a2-3)Gal(b1-3)]Neu5Ac(a2-3)Gal(b1-4)]GlcNAc
# Outline: as §1
# Neu5Ac(a2-3)Gal(b1-4)Glc = target: Neu5Ac(a2-3)Gal(b1-4)Glc
# Outline: as §1
# [24] = target: Neu5Ac(a2-3)Gal(b1-4)GlcNAc
# Outline: as §1
# [25] = target: Neu5Ac(a2-3)Gal(b1-4)GlcNAc(b1-2)Man
# Outline: as §1
# [26] = target: Neu5Ac(a2-3)Gal(b1-4)GlcNAc(b1-2)Man(a1-3)[GlcNAc(b1-4)][Neu5Ac(a2-3)Gal(b1-4)GlcNAc(b1-2)Man(a1-6)]Man(b1-4)GlcNAc(b1-4)GlcNAc
# Outline: as §1
# [27] = target: Neu5Ac(a2-3)Gal(b1-4)GlcNAc(b1-2)Man(a1-3)[Neu5Ac(a2-3)Gal(b1-4)GlcNAc(b1-2)Man(a1-6)]Man(b1-4)GlcNAc(b1-4)GlcNAc
# Outline: as §1
# [28] = target: Neu5Ac(a2-3)Gal(b1-4)GlcNAc(b1-2)Man(a1-3)[Neu5Ac(a2-3)Gal(b1-4)GlcNAc(b1-2)Man(a1-6)]Man(b1-4)GlcNAc(b1-4)[Fuc(a1-6)]GlcNAc
# Outline: as §1
# [29] = target: Neu5Ac(a2-3)Gal(b1-4)GlcNAc(b1-2)Man(a1-3)[Neu5Ac(a2-6)Gal(b1-4)GlcNAc(b1-2)Man(a1-6)]Man(b1-4)GlcNAc(b1-4)GlcNAc
# Outline: as §1
# [30] = target: Neu5Ac(a2-3)Gal(b1-4)GlcNAc(b1-2)[Neu5Ac(a2-3)Gal(b1-4)GlcNAc(b1-4)]Man(a1-3)[GlcNAc(b1-4)][Neu5Ac(a2-3)Gal(b1-4)GlcNAc(b1-2)[Neu5Ac(a2-3)Gal(b1-4)GlcNAc(b1-6)]Man(a1-6)]Man(b1-4)GlcNAc(b1-4)GlcNAc
# Outline: as §1
# [31] = target: Neu5Ac(a2-3)Gal(b1-4)GlcNAc(b1-2)[Neu5Ac(a2-3)Gal(b1-4)GlcNAc(b1-4)]Man(a1-3)[GlcNAc(b1-4)][Neu5Ac(a2-3)Gal(b1-4)GlcNAc(b1-4)Man(a1-6)]Man(b1-4)GlcNAc(b1-4)GlcNAc
# Outline: as §1
# [32] = target: Neu5Ac(a2-3)Gal(b1-4)GlcNAc(b1-2)[Neu5Ac(a2-3)Gal(b1-4)GlcNAc(b1-6)]Man(a1-6)[Neu5Ac(a2-3)Gal(b1-4)GlcNAc(b1-2)Man(a1-3)][GlcNAc(b1-4)]Man(b1-4)GlcNAc(b1-4)GlcNAc
# Outline: as §1
# [33] = target: Neu5Ac(a2-3)Gal(b1-4)GlcNAc(b1-3)Gal
# Outline: as §1
# [34] = target: Neu5Ac(a2-3)Gal(b1-4)GlcNAc(b1-3)Gal(b1-3)GlcNAc
# Outline: as §1
# [35] = target: Neu5Ac(a2-3)Gal(b1-4)GlcNAc(b1-3)Gal(b1-4)GlcNAc
# Outline: as §1
# [36] = target: Neu5Ac(a2-3)Gal(b1-4)GlcNAc(b1-3)Gal(b1-4)GlcNAc(b1-2)Man(a1-3)[Neu5Ac(a2-3)Gal(b1-4)GlcNAc(b1-3)Gal(b1-4)GlcNAc(b1-2)Man(a1-6)]Man(b1-4)GlcNAc(b1-4)GlcNAc
# Outline: as §1
# [37] = target: Neu5Ac(a2-3)Gal(b1-4)GlcNAc(b1-3)Gal(b1-4)GlcNAc(b1-3)Gal(b1-4)GlcNAc
# Outline: as §1
# [38] = target: Neu5Ac(a2-3)Gal(b1-4)GlcNAc(b1-3)Gal(b1-4)GlcNAc(b1-3)Gal(b1-4)GlcNAc(b1-2)Man(a1-3)[Neu5Ac(a2-3)Gal(b1-4)GlcNAc(b1-3)Gal(b1-4)GlcNAc(b1-3)Gal(b1-4)GlcNAc(b1-2)Man(a1-6)]GalNAc
# Outline: as §1
# [39] = target: Neu5Ac(a2-3)Gal(b1-4)GlcNAc(b1-3)Gal(b1-4)GlcNAc(b1-3)GalNAc
# Outline: as §1
# [40] = target: Neu5Ac(a2-3)Gal(b1-4)GlcNAc(b1-3)Gal(b1-4)GlcNAc(b1-3)[Neu5Ac(a2-3)Gal(b1-4)GlcNAc(b1-3)Gal(b1-4)GlcNAc(b1-6)]GalNAc
# Outline: as §1
# [41] = target: Neu5Ac(a2-3)Gal(b1-4)GlcNAc(b1-3)Gal(b1-4)GlcNAc(b1-6)[Gal(b1-3)]GalNAc
# Outline: as §1
# [42] = target: Neu5Ac(a2-3)Gal(b1-4)GlcNAc(b1-3)Gal(b1-4)[Fuc(a1-3)]GlcNAc
# Outline: as §1
# [43] = target: Neu5Ac(a2-3)Gal(b1-4)GlcNAc(b1-3)GalNAc
# Outline: as §1
# [44] = target: Neu5Ac(a2-3)Gal(b1-4)GlcNAc(b1-3)[Neu5Ac(a2-3)Gal(b1-4)GlcNAc(b1-6)]GalNAc
# Outline: as §1
binder,measurement,setting,value
Mermaid3 (Stilbonema majum) (protein) MGSSHHHHHHSSGLVPRGSHMAASGWLRSPQGTVVKLYRRSLSWSKADEFCKDVDGRLVVDRTADMHLFLIKNVLKEKKSRVWVGLRRTASHSRTWIWSDGTRQNEGDLDANLWLRDEPNDAAGEEECALFMYSPWEKAWGLNDYLCRGGCRNYQFICEKWIR,glycan array binding signal (z-score),[1],-0.595
same,glycan array binding signal (z-score),[2],-0.559
same,glycan array binding signal (z-score),[3],-0.334
same,glycan array binding signal (z-score),[4],0.514
same,glycan array binding signal (z-score),[5],-0.82
same,glycan array binding signal (z-score),[6],-0.112
same,glycan array binding signal (z-score),[7],-0.277
same,glycan array binding signal (z-score),[8],-0.419
same,glycan array binding signal (z-score),[9],-0.546
same,glycan array binding signal (z-score),[10],0.621
same,glycan array binding signal (z-score),[11],-0.572
same,glycan array binding signal (z-score),[12],-0.538
same,glycan array binding signal (z-score),[13],-0.582
same,glycan array binding signal (z-score),[14],-0.361
same,glycan array binding signal (z-score),[15],0.004
same,glycan array binding signal (z-score),[16],2.46
same,glycan array binding signal (z-score),[17],0.308
same,glycan array binding signal (z-score),[18],0.762
same,glycan array binding signal (z-score),[19],1.63
same,glycan array binding signal (z-score),[20],-0.478
same,glycan array binding signal (z-score),[21],-0.432
same,glycan array binding signal (z-score),[22],-0.212
same,glycan array binding signal (z-score),[23],-0.471
same,glycan array binding signal (z-score),Neu5Ac(a2-3)Gal(b1-4)Glc,0.506
same,glycan array binding signal (z-score),[24],0.245
same,glycan array binding signal (z-score),[25],4.26
same,glycan array binding signal (z-score),[26],-0.482
same,glycan array binding signal (z-score),[27],-0.562
same,glycan array binding signal (z-score),[28],-0.558
same,glycan array binding signal (z-score),[29],-0.284
same,glycan array binding signal (z-score),[30],-0.492
same,glycan array binding signal (z-score),[31],-0.416
same,glycan array binding signal (z-score),[32],-0.059
same,glycan array binding signal (z-score),[33],-0.802
same,glycan array binding signal (z-score),[34],-0.362
same,glycan array binding signal (z-score),[35],0.306
same,glycan array binding signal (z-score),[36],0.226
same,glycan array binding signal (z-score),[37],-0.653
same,glycan array binding signal (z-score),[38],1.96
same,glycan array binding signal (z-score),[39],-0.589
same,glycan array binding signal (z-score),[40],-0.289
same,glycan array binding signal (z-score),[41],0.035
same,glycan array binding signal (z-score),[42],-0.664
same,glycan array binding signal (z-score),[43],-0.602
same,glycan array binding signal (z-score),[44],-0.522
